The record followed here is publication PMC9501325.

Amino acid sequences for entries named in this document (tags omitted). A change or cut given only in a name is not applied to a line headed by its entry. Chains listed by the source or under a name are the forms on record and can include a tag or linker. Residues count along the entry.
UniProt P09874: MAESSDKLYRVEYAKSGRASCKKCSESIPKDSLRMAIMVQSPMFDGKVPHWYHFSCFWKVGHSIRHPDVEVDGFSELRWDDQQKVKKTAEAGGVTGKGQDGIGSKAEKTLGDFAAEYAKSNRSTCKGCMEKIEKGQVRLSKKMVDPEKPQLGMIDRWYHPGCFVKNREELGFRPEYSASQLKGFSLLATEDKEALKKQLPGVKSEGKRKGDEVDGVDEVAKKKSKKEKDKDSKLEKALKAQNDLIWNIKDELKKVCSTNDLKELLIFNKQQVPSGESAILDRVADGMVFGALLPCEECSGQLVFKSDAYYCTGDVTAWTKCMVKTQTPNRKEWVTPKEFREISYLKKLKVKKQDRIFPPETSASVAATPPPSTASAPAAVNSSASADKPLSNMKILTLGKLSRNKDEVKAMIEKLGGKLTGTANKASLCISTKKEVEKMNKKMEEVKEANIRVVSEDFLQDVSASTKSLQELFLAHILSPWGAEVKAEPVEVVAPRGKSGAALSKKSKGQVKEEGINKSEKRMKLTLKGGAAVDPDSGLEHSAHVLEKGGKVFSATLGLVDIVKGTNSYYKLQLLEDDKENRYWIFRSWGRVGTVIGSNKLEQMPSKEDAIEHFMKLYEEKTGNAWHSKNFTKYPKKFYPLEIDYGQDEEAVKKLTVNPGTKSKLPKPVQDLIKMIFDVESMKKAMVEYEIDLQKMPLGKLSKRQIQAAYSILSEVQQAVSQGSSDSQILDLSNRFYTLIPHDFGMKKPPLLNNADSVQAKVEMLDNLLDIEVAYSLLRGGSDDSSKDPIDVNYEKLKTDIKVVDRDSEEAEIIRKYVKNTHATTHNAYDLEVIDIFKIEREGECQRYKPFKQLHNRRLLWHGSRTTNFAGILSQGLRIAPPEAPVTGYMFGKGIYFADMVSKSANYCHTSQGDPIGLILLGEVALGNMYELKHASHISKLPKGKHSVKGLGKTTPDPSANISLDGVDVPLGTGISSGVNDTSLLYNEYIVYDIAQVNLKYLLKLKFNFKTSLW
SFB-tagged PARP-1 auto-modification domain (M): residues 216-488 of P09874
GFP-tagged PARP-1 DB (BRCT domain deletion mutant) (P09874, form named): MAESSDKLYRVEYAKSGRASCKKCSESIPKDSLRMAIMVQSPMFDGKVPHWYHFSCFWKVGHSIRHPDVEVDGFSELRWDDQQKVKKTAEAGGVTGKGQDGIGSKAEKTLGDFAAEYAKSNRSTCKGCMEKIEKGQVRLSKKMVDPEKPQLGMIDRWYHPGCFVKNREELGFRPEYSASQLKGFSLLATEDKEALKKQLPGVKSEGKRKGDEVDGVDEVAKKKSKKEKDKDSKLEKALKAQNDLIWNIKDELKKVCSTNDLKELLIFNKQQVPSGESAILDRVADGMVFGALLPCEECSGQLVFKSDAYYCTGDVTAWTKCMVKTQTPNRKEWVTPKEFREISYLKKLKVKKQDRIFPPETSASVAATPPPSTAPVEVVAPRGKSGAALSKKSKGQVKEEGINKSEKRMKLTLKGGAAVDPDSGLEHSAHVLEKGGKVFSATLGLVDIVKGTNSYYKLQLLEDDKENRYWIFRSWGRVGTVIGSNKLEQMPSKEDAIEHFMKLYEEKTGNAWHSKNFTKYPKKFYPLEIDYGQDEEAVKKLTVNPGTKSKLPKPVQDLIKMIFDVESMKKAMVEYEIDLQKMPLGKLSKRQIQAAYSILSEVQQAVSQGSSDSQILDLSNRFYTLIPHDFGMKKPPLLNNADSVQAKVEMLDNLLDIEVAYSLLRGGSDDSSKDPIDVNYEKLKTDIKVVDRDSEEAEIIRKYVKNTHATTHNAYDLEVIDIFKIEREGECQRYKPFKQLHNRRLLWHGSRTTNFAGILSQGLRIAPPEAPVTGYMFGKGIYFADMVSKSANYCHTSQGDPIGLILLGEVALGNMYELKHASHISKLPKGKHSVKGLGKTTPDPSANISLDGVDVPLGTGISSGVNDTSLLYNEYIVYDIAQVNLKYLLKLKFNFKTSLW
SFB-tagged PARP-1 DM (deletion of the auto-modification domain) (P09874, form named): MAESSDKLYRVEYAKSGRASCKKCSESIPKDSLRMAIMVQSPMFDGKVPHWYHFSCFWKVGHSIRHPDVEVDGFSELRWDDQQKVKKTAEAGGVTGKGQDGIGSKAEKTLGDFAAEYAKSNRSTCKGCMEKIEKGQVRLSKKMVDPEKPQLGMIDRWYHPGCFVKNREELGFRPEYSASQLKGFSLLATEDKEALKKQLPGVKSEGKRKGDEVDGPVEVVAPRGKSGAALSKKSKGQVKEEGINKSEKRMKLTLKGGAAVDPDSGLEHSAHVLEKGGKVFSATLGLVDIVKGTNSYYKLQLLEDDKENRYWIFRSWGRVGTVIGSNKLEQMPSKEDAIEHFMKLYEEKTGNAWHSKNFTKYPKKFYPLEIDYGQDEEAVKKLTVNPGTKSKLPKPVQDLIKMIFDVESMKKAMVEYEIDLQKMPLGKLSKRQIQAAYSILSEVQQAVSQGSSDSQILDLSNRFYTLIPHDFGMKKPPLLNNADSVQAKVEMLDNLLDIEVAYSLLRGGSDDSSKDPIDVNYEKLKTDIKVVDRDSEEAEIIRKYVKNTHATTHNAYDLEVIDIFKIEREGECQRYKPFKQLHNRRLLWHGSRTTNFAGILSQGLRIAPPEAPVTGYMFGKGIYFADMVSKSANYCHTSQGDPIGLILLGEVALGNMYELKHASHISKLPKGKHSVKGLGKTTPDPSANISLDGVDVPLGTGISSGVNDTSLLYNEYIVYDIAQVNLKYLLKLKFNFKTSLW

What all share (assay): co-IP
The target in test [1] is T1, SFB-tagged UL76 (human cytomegalovirus (HCMV)) (UniProt P16725).
T1 sequence: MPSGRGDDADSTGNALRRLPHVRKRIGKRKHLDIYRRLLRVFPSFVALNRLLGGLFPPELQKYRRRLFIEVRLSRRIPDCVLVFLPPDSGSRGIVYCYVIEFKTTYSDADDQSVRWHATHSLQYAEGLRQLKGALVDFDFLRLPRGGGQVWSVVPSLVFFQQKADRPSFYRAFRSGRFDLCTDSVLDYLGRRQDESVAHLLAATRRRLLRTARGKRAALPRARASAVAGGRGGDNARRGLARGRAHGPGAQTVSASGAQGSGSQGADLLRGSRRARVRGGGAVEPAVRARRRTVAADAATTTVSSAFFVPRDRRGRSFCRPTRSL

Test [2] has as its target SFB-tagged UL76 C terminus (human cytomegalovirus (HCMV)) (UniProt P16725).
Test [3] deals with Poly (ADP-ribose) polymerase 1 (PARP-1), endogenous in MRC-5 cells (human (endogenous in MRC-5)) (UniProt P09874).
The target in test [4] is SFB-tagged PARP-1 full length (FL) (human) (UniProt P09874).
In test [5] the target is SFB-tagged PARP-1 auto-modification domain (M) (human) (UniProt P09874).
Test [6] has as its target SFB-tagged PARP-1 DM (deletion of the auto-modification domain) (human) (UniProt P09874).

Results are given in words; binding and its absence hold for the method and conditions named. Binding seen in cells or lysates may run through a third protein. Some results given as binding are weak or reduced against the parent protein; the word gives no strength. For some assays here: Tags and fused reporters may be left off the sequences shown.

For the molecule “GFP-tagged PARP-1 WT (from UniProt P09874 1-1014) (enzyme)”, the binding entry in test [1] is recorded as “binds”. The same measure, in the same setting: as for “GFP-tagged PARP-1 DB (BRCT domain deletion mutant) (from UniProt P09874) (enzyme)”, the entry is “no binding”.

As for “Poly (ADP-ribose) polymerase 1 (PARP-1), endogenous in HEK293T cells (from UniProt P09874 1-1014) (enzyme)”, the binding result in test [1] and in test [2] was “binds” each time.

B1: HCMV UL76 (virus-encoded, in HCMV-infected MRC-5 cells) (protein, UniProt P16725 1-325)
chain: T1 sequence
For B1, the binding result in test [3] was “binds”.

B2: myc-tagged UL76 (protein, UniProt P16725 1-325)
chain: T1 sequence
As to B2, the figures for the binding entry in test [4], in test [5] and in test [6] were “binds”, “binds” and “no binding”, respectively.
